According to PubChem BioAssay AID686979 (National Center for Advancing Translational Sciences (NCATS), 2013):
Where “and” joins values, the source holds several entries; their conditions need not be identical. Equal values may be shown once. The whole screen tested about 420,000 compounds, of which about 50,000 (12%) were called active. The shares of active, inactive and inconclusive entries below differ from those in the screen. Calls follow the shape of the dose curve; as a rule, active = well fitted inhibition curve with a large enough effect; inconclusive = small, poorly fitted or top-dose-only effect; inactive = flat fitted curve, though single readings scatter. Potencies beside an inconclusive call are fits to weak or partial responses and may not hold up.

Assay: qHTS for Inhibitors of human tyrosyl-DNA phosphodiesterase 1 (TDP1): qHTS in cells in presence of CPT; also: nearly all actives have a fitted effect of over 55% in size
Conditions: chicken DT40 Tdp1-/-;hTDP1 cells + 20 nM CPT, ATP luminescence, 48 h; activity change, negative = growth inhibition: at 46.2 µM (top of the series) unless noted
In short: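 Chicken DT40 Tdp1-/- cells complemented with human TDP1, 400 cells/well, exposed to compounds plus 20 nM camptothecin for at least 48 h at 37 C; viability read as ATP content by CellTiter-Glo luminescence.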
% is scaled to controls: 0 for no effect and ±100 for the full control effect; potency is read from the fitted curve at half-maximal effect; tags tell the direction and shape of the fitted curve.

Compound	Potency	activity change, negative = growth inhibition
OC[C@@H](O)C(O)[C@H](O)CO	inactive	–
CC(=O)Oc1c(-c2ccc(Br)o2)oc2ccccc2c1=O	active: 25.9 µM	–
O=C1c2ccccc2C(c2nnnn2-c2ccc3c(c2)OCCO3)N1Cc1ccc(F)cc1 (configuration not stated)	inconclusive: 29.1 µM [inhibitor, single point]	–
CCCCSc1ncnc2[nH]ncc12	inactive	–
C/C(CC(=O)Nc1ccc(N(C)C)cc1)=N\NC(=O)c1ccc([N+](=O)[O-])cc1Cl	inconclusive: 29.1 µM [inhibitor, single point]	–
Cc1ccc(C)c(NC(=O)c2ccc3c(c2)CCN3S(C)(=O)=O)c1	–	inconclusive: -32.1% [inhibitor]
O=C(/C=C/c1ccccc1Cl)c1ccccc(=O)c1O	active: 2.91 µM	–
CCC1CCc2nc3sc(C(=O)Nc4ccc(F)c(Cl)c4)c(N)c3cc2C1 (configuration not stated)	inconclusive: 2.06 µM [inhibitor, single point]	–
O=C(c1ccc(CN2CCOCC2)cc1)N1CCN(c2cccc(Cl)c2)CC1	inconclusive: 23.1 µM [inhibitor, single point]	–
CC(C)Cn1c(N)c(C(=O)COC(=O)c2c(F)cccc2F)c(=O)n(C)c1=O	inactive	–
Cc1cccc(NC(=O)Nc2ccc3c(c2)N(C)C(=O)CS3)n1	inconclusive: 29.1 µM [inhibitor, single point]	–
Nc1nc(NCc2cccc(Cl)c2)c2[nH]cnc2n1	inconclusive: 28.2 µM [inhibitor, single point] and inconclusive: 17.8 µM [inhibitor, single point]	–
COc1ccc(NC(=O)C(c2ccc(C)cc2)N(C)C(=O)Cc2cccs2)cc1 (configuration not stated)	inconclusive: 18.4 µM [inhibitor, single point] and inconclusive: 20.6 µM [inhibitor, single point]	–
CCc1ccccc1NC(=O)c1ccc(-n2c(C)ccc2C)cc1	inconclusive: 29.1 µM [inhibitor, single point]	–
COc1ccc(-c2ccc3c(N)c(C(=O)c4cccc(OC)c4)sc3n2)cc1	inconclusive: 11.6 µM [inhibitor, partial curve]	–
COc1cc2nc(CN3CCC(Cc4ccccc4)CC3)[nH]c(=O)c2cc1OC	inconclusive: 29.1 µM [inhibitor, single point]	–
COc1ccc2nc(-c3ccc(N)cc3)[nH]c2c1	inconclusive: 29.1 µM [inhibitor, single point]	–
COc1ccccc1CNC(=O)CSc1ncc2c(n1)-c1ccc(Cl)cc1N(Cc1ccccc1)S2(=O)=O	inconclusive: 23.1 µM [inhibitor, single point]	–
CCCN(CCC)C(=O)c1cc(S(=O)(=O)N2CCCCC2)c[nH]1	inactive	–
O=C(NCc1ccccc1Cl)c1ccc2c(=O)n(CC3CCCO3)c(=S)[nH]c2c1 (configuration not stated)	inconclusive: 0.0073 µM [inhibitor, full curve, poor fit]	–
CCC12C(=O)C(CC)(C(c3ccccc3)=C1c1ccccc1)[C@@H]1C(=O)N(c3ccc(C)cc3)C(=O)C12 (some centres not stated)	inconclusive: 29.1 µM [inhibitor, single point]	–

Compound	Potency	activity change, negative = growth inhibition
COc1cc(CNc2ncnc3c2ncn3[C@H]2CN(Cc3ccncc3)C[C@@H](CO)O2)cc(OC)c1OC	active: 13 µM	–
CCCCC[C@@H](C)N1C[C@H](COCc2ccccc2)Oc2cc(N3CC[C@@H](O)C3)ccc2S1(=O)=O	inconclusive: 20.6 µM [inhibitor, single point]	–
CC(C)(C)c1ccc(OCCn2ccccc2=O)cc1	inconclusive: 32.6 µM [inhibitor, single point]	–
CCN(CC)S(=O)(=O)c1ccc(N2CC(C(=O)Nc3cccc(C(=O)NC4CC4)c3)CC2=O)cc1 (configuration not stated)	inconclusive: 18.4 µM [inhibitor, single point]	–
CCOC(=O)CCP(=O)(O)C(O)c1ccccc1 (configuration not stated)	inconclusive: 29.1 µM [inhibitor, single point]	–
COc1ccc(/C=C/c2ccccn2)cc1	inconclusive: 1.58 µM [inhibitor, full curve, poor fit]	–
CN(C)S(=O)(=O)c1cccc(-c2nnc(SCc3cc(Cl)cc4c3OCOC4)n2N)c1	–	inconclusive: -36.4% [inhibitor]
CCc1ccc(NC(=S)N2CCN(c3cccc(OC)c3)CC2)cc1	inactive	–
COC(=O)c1ccc(CSc2nnc(Nc3ccccc3OC)s2)o1	inconclusive: 29.1 µM [inhibitor, single point]	–
CCOC(=O)Cn1nc(C)n(-c2c(C)cccc2C)c1=O	inactive	–
O=C(Cn1c(-c2cccs2)cc2cc(Cl)ccc21)N1CCN(c2ccccc2)CC1	inconclusive: 16.4 µM [inhibitor, single point]	–
CCOc1ccc(N2C(=O)CC(SC(=NC)Nc3ccc4c(c3)OCO4)C2=O)cc1 (configuration not stated)	inactive	–
Cc1ccc2cc(CN(Cc3cccs3)Cc3nnnn3CC3CCCO3)c(=O)[nH]c2c1C (configuration not stated)	inconclusive: 18.4 µM [inhibitor, single point]	–
COc1cc(/C=N/O)cc(Br)c1OS(=O)(=O)c1ccc(C)cc1	inconclusive: 6.51 µM [inhibitor, partial curve]	–
O=[N+]([O-])c1cccc(-c2cnc3ccccc3n2)c1	inactive	–
CCOC(=O)c1c(C)[nH]c(C)c1C(=O)COC(=O)C1CCCN1S(=O)(=O)c1ccccc1F (configuration not stated)	active: 11.6 µM	–
CC(=O)N1CCN(c2ccc(NC(=O)c3cc4ccccc4o3)cc2)CC1	inconclusive: 29.1 µM [inhibitor, single point]	–
Cc1ccc(NC(=O)C2CCCN2S(=O)(=O)c2ccc3c(c2)CCCC(=O)N3)cc1C (configuration not stated)	inconclusive: 23.1 µM [inhibitor, single point]	–
O=C(Cn1c(=O)c2cc(Cl)ccc2n2nncc12)Nc1ccccc1	inactive	–
Cc1ccc([N+](=O)[O-])cc1NC(=O)c1ccccc1	inactive	–
Cc1cccc(OCC(=O)N2CCN(C(=O)c3ccc([N+](=O)[O-])cc3)CC2)c1	inconclusive: 0.58 µM [inhibitor, partial curve]	–
